This note sets out measurements from article PMC8417235.

Amino acid sequences for entries named in this document (tags omitted).
UniProt Q9Y6K9: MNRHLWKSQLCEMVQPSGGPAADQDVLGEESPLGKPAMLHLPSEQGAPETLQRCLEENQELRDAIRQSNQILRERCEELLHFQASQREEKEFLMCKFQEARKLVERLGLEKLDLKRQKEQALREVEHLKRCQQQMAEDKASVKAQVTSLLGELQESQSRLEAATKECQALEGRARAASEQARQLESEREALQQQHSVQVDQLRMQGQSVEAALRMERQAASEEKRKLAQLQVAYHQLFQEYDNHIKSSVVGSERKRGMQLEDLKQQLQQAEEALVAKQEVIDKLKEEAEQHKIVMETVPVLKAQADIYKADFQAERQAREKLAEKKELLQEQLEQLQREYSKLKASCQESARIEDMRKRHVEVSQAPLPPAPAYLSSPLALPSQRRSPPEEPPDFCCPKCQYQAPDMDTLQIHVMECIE
UniProt Q04206: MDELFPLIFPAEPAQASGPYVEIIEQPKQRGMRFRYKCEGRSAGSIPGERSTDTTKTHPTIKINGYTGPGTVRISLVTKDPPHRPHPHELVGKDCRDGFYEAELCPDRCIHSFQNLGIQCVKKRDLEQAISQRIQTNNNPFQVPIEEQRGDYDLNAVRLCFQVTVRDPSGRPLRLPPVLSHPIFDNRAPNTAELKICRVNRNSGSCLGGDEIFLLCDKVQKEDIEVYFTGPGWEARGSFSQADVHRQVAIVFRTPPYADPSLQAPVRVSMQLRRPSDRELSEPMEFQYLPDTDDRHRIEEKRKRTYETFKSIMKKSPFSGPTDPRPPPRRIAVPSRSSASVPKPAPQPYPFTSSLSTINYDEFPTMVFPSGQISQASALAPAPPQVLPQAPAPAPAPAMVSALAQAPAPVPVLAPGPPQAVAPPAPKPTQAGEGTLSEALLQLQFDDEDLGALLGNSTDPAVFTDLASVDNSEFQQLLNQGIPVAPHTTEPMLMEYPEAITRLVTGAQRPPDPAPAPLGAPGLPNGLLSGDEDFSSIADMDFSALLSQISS
UniProt O00463: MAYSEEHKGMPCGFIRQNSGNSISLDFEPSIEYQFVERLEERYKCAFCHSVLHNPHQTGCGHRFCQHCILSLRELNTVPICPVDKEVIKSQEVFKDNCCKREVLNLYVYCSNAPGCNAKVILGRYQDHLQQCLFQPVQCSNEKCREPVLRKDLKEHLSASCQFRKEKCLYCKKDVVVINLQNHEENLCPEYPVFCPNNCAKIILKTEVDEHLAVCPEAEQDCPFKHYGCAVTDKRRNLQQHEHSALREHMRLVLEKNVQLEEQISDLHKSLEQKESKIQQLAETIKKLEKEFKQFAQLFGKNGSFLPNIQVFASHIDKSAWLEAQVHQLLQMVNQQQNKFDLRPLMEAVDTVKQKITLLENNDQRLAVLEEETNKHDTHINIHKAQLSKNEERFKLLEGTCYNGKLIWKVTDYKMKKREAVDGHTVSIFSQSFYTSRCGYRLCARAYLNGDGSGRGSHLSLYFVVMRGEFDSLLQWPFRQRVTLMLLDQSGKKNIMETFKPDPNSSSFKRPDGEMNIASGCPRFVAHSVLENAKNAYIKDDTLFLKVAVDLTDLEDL

Results are given in words; binding and its absence hold for the method and conditions named. In cells and extracts the contact can be indirect. Some entries that bind do so weakly or less than the wild type. Tags and fused reporters may be left off the sequences shown.

Holding throughout (assay): co-IP; HEK293T cells cotransfected with the expression plasmids, 24 h; lysates incubated at 4°C for 4 h with anti-Flag agarose beads, washed 3-4 times, immunoblot (Figure 4A,B,D,E)
Assay [1] has as its target T1, Flag-tagged IKKα (UniProt O15111).
T1 sequence: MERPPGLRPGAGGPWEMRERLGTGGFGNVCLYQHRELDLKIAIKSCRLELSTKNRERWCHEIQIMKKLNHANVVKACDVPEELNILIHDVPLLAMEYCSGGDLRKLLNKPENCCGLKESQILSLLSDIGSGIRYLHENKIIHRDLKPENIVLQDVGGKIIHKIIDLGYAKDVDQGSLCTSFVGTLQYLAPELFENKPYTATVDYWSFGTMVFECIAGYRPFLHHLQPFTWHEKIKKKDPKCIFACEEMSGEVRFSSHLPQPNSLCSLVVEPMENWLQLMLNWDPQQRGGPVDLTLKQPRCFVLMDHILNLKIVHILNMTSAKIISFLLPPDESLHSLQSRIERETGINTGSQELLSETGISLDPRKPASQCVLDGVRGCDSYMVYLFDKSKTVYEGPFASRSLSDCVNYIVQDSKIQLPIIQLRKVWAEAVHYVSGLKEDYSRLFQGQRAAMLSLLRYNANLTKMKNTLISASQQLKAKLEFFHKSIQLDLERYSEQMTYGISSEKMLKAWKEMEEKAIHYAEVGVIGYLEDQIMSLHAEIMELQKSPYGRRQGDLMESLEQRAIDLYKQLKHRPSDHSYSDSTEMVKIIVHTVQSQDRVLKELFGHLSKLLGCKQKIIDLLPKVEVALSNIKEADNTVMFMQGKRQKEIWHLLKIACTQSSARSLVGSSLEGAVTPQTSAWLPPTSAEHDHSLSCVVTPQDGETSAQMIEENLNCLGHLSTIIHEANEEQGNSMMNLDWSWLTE

The target of assay [2] is T2, Flag-tagged IKKβ (UniProt O14920).
T2 sequence: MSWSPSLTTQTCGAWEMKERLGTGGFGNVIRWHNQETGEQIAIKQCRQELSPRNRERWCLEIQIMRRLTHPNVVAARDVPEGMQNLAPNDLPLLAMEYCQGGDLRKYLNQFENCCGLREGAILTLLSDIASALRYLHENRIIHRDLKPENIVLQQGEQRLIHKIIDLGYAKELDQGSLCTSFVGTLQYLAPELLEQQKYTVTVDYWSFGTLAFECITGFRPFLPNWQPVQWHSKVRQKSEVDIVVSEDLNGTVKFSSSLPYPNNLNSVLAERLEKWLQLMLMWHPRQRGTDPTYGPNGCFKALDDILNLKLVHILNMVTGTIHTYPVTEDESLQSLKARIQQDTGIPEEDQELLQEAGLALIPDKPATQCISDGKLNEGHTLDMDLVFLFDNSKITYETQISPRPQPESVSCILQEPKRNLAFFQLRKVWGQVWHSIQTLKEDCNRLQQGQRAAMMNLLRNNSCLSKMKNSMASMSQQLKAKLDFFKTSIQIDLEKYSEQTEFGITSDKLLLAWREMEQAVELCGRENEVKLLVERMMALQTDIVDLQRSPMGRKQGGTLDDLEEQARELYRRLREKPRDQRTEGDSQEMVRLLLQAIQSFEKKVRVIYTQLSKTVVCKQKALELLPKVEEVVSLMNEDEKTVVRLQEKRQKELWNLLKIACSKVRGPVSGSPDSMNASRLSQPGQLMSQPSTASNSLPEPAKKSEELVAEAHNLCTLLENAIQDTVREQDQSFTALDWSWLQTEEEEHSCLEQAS

The target in assay [3] is Flag-tagged NEMO (UniProt Q9Y6K9).
Assay [4] concerns the target Flag-tagged P65 (UniProt Q04206).
Assay [5] addresses T3, Flag-tagged TAK1 (UniProt O43318).
T3 sequence: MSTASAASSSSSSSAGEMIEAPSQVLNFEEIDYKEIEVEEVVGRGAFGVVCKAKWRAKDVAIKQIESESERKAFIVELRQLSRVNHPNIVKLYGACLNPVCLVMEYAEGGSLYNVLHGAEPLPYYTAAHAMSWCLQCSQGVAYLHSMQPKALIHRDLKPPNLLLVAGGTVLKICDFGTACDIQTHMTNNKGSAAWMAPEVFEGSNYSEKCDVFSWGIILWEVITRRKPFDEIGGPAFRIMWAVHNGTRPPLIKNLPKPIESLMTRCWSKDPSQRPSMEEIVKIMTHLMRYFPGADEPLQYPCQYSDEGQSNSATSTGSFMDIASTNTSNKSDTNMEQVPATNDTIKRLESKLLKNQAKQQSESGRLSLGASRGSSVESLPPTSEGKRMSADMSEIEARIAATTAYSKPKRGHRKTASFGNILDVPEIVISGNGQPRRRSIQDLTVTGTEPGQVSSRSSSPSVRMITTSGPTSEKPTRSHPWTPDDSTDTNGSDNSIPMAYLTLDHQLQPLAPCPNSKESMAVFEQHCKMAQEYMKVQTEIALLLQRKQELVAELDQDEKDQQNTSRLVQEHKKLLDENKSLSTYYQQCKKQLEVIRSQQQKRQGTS

The target in assay [6] is T4, Flag-tagged TRAF2 (UniProt Q12933).
T4 sequence: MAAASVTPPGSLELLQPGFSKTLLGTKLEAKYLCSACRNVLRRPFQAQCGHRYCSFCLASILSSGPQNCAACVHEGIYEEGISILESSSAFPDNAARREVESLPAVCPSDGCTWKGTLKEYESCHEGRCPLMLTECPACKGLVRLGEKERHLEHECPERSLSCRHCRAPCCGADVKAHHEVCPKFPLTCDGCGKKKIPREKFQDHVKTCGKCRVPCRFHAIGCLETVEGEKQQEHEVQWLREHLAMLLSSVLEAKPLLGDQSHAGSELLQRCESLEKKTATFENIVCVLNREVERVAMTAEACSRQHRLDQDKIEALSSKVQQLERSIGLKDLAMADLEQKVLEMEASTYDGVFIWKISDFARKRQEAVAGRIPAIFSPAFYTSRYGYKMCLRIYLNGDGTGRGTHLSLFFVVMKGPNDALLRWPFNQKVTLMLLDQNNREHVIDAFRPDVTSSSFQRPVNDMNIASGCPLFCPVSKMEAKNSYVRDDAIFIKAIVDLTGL

For assay [7], the target named is Flag-tagged TRAF5 (UniProt O00463).

B1: Myc-tagged ZDHHC11 (protein, UniProt Q9H8X9 1-412)
chain: MDTRSGSQCSVTPEAILNNEKLVLPPRISRVNGWSLPLHYFQVVTWAVFVGLSSATFGIFIPFLPHAWKYIAYVVTGGIFSFHLVVHLIASCIDPADSNVRLMKNYSQPMPLFDRSKHAHVIQNQFCHLCKVTVNKKTKHCISCNKCVSGFDHHCKWINNCVGSRNYWFFFSTVASATAGMLCLIAILLYVLVQYLVNPGVLRTDPRYEDVKNMNTWLLFLPLFPVQVQTLIVVIIGMLVLLLDFLGLVHLGQLLIFHIYLKAKKMTTFEYLINNRKEESSKHQAVRKDPYVQMDKGVLQQGAGALGSSAQGVKAKSSLLIHKHLCHFCTSVNQDGDSTAREGDEDPCPSALGAKARNSRLICRRLCQFSTRVHPDGGSMAQEADDAPSISTLGLQQETTEPMKTDSAESED
For the molecule B1, the binding result in assay [1] is recorded as “binds weakly”; in assay [2], “no binding”; in assay [3], “no binding”; in assay [4], “no binding”; in assay [5], “binds weakly”; in assay [6], “no binding”. Also, the binding entry in assay [7] is recorded as “no binding”.
